Laboratory results reported in publication PMC12820563, “FoxP3 forms a head-to-head dimer in vivo and stabilizes its multimerization on adjacent microsatellites”.
The other results are listed elsewhere or left out.

biological target: T1, MBP-FoxP1dN (Mus musculus, UniProt P58462 326-579); assay: PD-seq (MBP pull-down with sequencing); 20 mM Tris-HCl pH 7.5, 100 mM NaCl, 1.5 mM MgCl2, 0.4 uM protein, 0.1 uM dsDNA library, 30 min, room temperature, amylose pull-down; high values mean tight binding; details: protein: recombinant; tags: His6-MBP; chain copies: 2; dsDNA, one strand shown
T1 sequence: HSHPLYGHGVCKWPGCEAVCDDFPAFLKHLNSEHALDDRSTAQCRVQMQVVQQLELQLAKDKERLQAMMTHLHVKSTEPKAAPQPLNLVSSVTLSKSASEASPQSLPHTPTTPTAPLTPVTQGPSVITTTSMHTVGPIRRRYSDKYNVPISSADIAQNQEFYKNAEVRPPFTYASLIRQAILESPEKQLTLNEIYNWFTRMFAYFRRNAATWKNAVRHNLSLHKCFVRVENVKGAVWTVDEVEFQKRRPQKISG
Procedure, shortened: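 His6-MBP-tagged mouse FoxP3 or FoxP1 fragment lacking the N-terminus, expressed in E. coli, was mixed at 0.4 µM with 0.1 µM Klenow-filled double-stranded degenerate DNA library. Incubation was 30 min at room temperature in Tris pH 7.5 buffer with NaCl and MgCl2. Complexes were caught on amylose resin and washed three times; DNA was released with proteinase K, PCR-barcoded and Illumina-sequenced. Binding is reads-per-million enrichment, pull-down over input, with replicates pooled.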

Sequence | binding signal
GATGATTGTTCTCCCAGCTGATGAATTTTAAACGTCGAGTAAACAAATTTTCCTAATCTTTCTGTTCAAGCGCCATCTAC | 0.934 RPM ratio (pull-down/input)
GATGATTGTTCTCCCAGCTGATGAATTGCCTAGCTCGAGTAAACAAATTTTCCTAATCTTTCTGTTCAAGCGCCATCTAC | 0.861 RPM ratio (pull-down/input)
GATGATTGTTCTCCCAGCTGATGAATTTCAACTTTCGAGTAAACAAATTTTCCTAATCTTTCTGTTCAAGCGCCATCTAC | 0.956 RPM ratio (pull-down/input)
GATGATTGTTCTCCCAGCTGATGAATTTGCTGGGTCGAGTAAACAAATTTTCCTAATCTTTCTGTTCAAGCGCCATCTAC | 0.859 RPM ratio (pull-down/input)
GATGATTGTTCTCCCAGCTGATGAATTCCTTCGGTCGAGTAAACAAATTTTCCTAATCTTTCTGTTCAAGCGCCATCTAC | 0.764 RPM ratio (pull-down/input)
GATGATTGTTCTCCCAGCTGATGAATTGCTACCCTCGAGTAAACAAATTTTCCTAATCTTTCTGTTCAAGCGCCATCTAC | 0.958 RPM ratio (pull-down/input)
GATGATTGTTCTCCCAGCTGATGAATTGCCGATTTCGAGTAAACAAATTTTCCTAATCTTTCTGTTCAAGCGCCATCTAC | 1.1 RPM ratio (pull-down/input)
GATGATTGTTCTCCCAGCTGATGAATTTCCAACGTCGAGTAAACAAATTTTCCTAATCTTTCTGTTCAAGCGCCATCTAC | 0.861 RPM ratio (pull-down/input)
GATGATTGTTCTCCCAGCTGATGAATTTACTTTGTCGAGTAAACAAATTTTCCTAATCTTTCTGTTCAAGCGCCATCTAC | 1.37 RPM ratio (pull-down/input)
GATGATTGTTCTCCCAGCTGATGAATTGGAAACATCGAGTAAACAAATTTTCCTAATCTTTCTGTTCAAGCGCCATCTAC | 1.23 RPM ratio (pull-down/input)
GATGATTGTTCTCCCAGCTGATGAATTAACCGAGTCGAGTAAACAAATTTTCCTAATCTTTCTGTTCAAGCGCCATCTAC | 0.791 RPM ratio (pull-down/input)
GATGATTGTTCTCCCAGCTGATGAATTCACATATTCGAGTAAACAAATTTTCCTAATCTTTCTGTTCAAGCGCCATCTAC | 0.914 RPM ratio (pull-down/input)
GATGATTGTTCTCCCAGCTGATGAATTAGCTTACTCGAGTAAACAAATTTTCCTAATCTTTCTGTTCAAGCGCCATCTAC | 0.938 RPM ratio (pull-down/input)
GATGATTGTTCTCCCAGCTGATGAATTCGATTGTTCGAGTAAACAAATTTTCCTAATCTTTCTGTTCAAGCGCCATCTAC | 1.02 RPM ratio (pull-down/input)
GATGATTGTTCTCCCAGCTGATGAATTGGGCACGTCGAGTAAACAAATTTTCCTAATCTTTCTGTTCAAGCGCCATCTAC | 0.834 RPM ratio (pull-down/input)
GATGATTGTTCTCCCAGCTGATGAATTGGAATTATCGAGTAAACAAATTTTCCTAATCTTTCTGTTCAAGCGCCATCTAC | 0.944 RPM ratio (pull-down/input)
GATGATTGTTCTCCCAGCTGATGAATTAGATCAATCGAGTAAACAAATTTTCCTAATCTTTCTGTTCAAGCGCCATCTAC | 1.04 RPM ratio (pull-down/input)
GATGATTGTTCTCCCAGCTGATGAATTGAGTATCTCGAGTAAACAAATTTTCCTAATCTTTCTGTTCAAGCGCCATCTAC | 0.948 RPM ratio (pull-down/input)
GATGATTGTTCTCCCAGCTGATGAATTGGCATAGTCGAGTAAACAAATTTTCCTAATCTTTCTGTTCAAGCGCCATCTAC | 0.946 RPM ratio (pull-down/input)
GATGATTGTTCTCCCAGCTGATGAATTAGCTCTCTCGAGTAAACAAATTTTCCTAATCTTTCTGTTCAAGCGCCATCTAC | 0.816 RPM ratio (pull-down/input)
GATGATTGTTCTCCCAGCTGATGAATTTCACAGGTCGAGTAAACAAATTTTCCTAATCTTTCTGTTCAAGCGCCATCTAC | 0.774 RPM ratio (pull-down/input)

Sequence | binding signal
GATGATTGTTCTCCCAGCTGATGAATTGAACCTCTCGAGTAAACAAATTTTCCTAATCTTTCTGTTCAAGCGCCATCTAC | 0.836 RPM ratio (pull-down/input)
GATGATTGTTCTCCCAGCTGATGAATTTCGCGACTCGAGTAAACAAATTTTCCTAATCTTTCTGTTCAAGCGCCATCTAC | 0.864 RPM ratio (pull-down/input)
GATGATTGTTCTCCCAGCTGATGAATTAGGGGGTTCGAGTAAACAAATTTTCCTAATCTTTCTGTTCAAGCGCCATCTAC | 0.91 RPM ratio (pull-down/input)
GATGATTGTTCTCCCAGCTGATGAATTACTTGGATCGAGTAAACAAATTTTCCTAATCTTTCTGTTCAAGCGCCATCTAC | 0.979 RPM ratio (pull-down/input)
GATGATTGTTCTCCCAGCTGATGAATTCGAAATTTCGAGTAAACAAATTTTCCTAATCTTTCTGTTCAAGCGCCATCTAC | 0.896 RPM ratio (pull-down/input)
GATGATTGTTCTCCCAGCTGATGAATTTCTTACCTCGAGTAAACAAATTTTCCTAATCTTTCTGTTCAAGCGCCATCTAC | 0.888 RPM ratio (pull-down/input)
GATGATTGTTCTCCCAGCTGATGAATTTGGGGTCTCGAGTAAACAAATTTTCCTAATCTTTCTGTTCAAGCGCCATCTAC | 0.838 RPM ratio (pull-down/input)
GATGATTGTTCTCCCAGCTGATGAATTATCGTTATCGAGTAAACAAATTTTCCTAATCTTTCTGTTCAAGCGCCATCTAC | 1.11 RPM ratio (pull-down/input)
GATGATTGTTCTCCCAGCTGATGAATTTGGTGCGTCGAGTAAACAAATTTTCCTAATCTTTCTGTTCAAGCGCCATCTAC | 1.04 RPM ratio (pull-down/input)
GATGATTGTTCTCCCAGCTGATGAATTTGAGTCCTCGAGTAAACAAATTTTCCTAATCTTTCTGTTCAAGCGCCATCTAC | 0.74 RPM ratio (pull-down/input)
GATGATTGTTCTCCCAGCTGATGAATTCTATGTGTCGAGTAAACAAATTTTCCTAATCTTTCTGTTCAAGCGCCATCTAC | 1.03 RPM ratio (pull-down/input)
GATGATTGTTCTCCCAGCTGATGAATTCGCAGGTTCGAGTAAACAAATTTTCCTAATCTTTCTGTTCAAGCGCCATCTAC | 0.782 RPM ratio (pull-down/input)
GATGATTGTTCTCCCAGCTGATGAATTAGTATTCTCGAGTAAACAAATTTTCCTAATCTTTCTGTTCAAGCGCCATCTAC | 0.982 RPM ratio (pull-down/input)
GATGATTGTTCTCCCAGCTGATGAATTACAGATTTCGAGTAAACAAATTTTCCTAATCTTTCTGTTCAAGCGCCATCTAC | 1.19 RPM ratio (pull-down/input)
GATGATTGTTCTCCCAGCTGATGAATTGATGTCTTCGAGTAAACAAATTTTCCTAATCTTTCTGTTCAAGCGCCATCTAC | 1.16 RPM ratio (pull-down/input)
GATGATTGTTCTCCCAGCTGATGAATTCGCAACCTCGAGTAAACAAATTTTCCTAATCTTTCTGTTCAAGCGCCATCTAC | 0.943 RPM ratio (pull-down/input)
GATGATTGTTCTCCCAGCTGATGAATTTGGGGTGTCGAGTAAACAAATTTTCCTAATCTTTCTGTTCAAGCGCCATCTAC | 0.832 RPM ratio (pull-down/input)
GATGATTGTTCTCCCAGCTGATGAATTGATGGTCTCGAGTAAACAAATTTTCCTAATCTTTCTGTTCAAGCGCCATCTAC | 0.887 RPM ratio (pull-down/input)
GATGATTGTTCTCCCAGCTGATGAATTCCTGGTTTCGAGTAAACAAATTTTCCTAATCTTTCTGTTCAAGCGCCATCTAC | 0.868 RPM ratio (pull-down/input)
GATGATTGTTCTCCCAGCTGATGAATTCGGCTAGTCGAGTAAACAAATTTTCCTAATCTTTCTGTTCAAGCGCCATCTAC | 0.802 RPM ratio (pull-down/input)
GATGATTGTTCTCCCAGCTGATGAATTACTTGAGTCGAGTAAACAAATTTTCCTAATCTTTCTGTTCAAGCGCCATCTAC | 0.986 RPM ratio (pull-down/input)

Sequence | binding signal
GATGATTGTTCTCCCAGCTGATGAATTCCATCCCTCGAGTAAACAAATTTTCCTAATCTTTCTGTTCAAGCGCCATCTAC | 0.832 RPM ratio (pull-down/input)
GATGATTGTTCTCCCAGCTGATGAATTATGCGAATCGAGTAAACAAATTTTCCTAATCTTTCTGTTCAAGCGCCATCTAC | 1.08 RPM ratio (pull-down/input)
GATGATTGTTCTCCCAGCTGATGAATTCCAACCGTCGAGTAAACAAATTTTCCTAATCTTTCTGTTCAAGCGCCATCTAC | 0.834 RPM ratio (pull-down/input)
GATGATTGTTCTCCCAGCTGATGAATTTCCAGGGTCGAGTAAACAAATTTTCCTAATCTTTCTGTTCAAGCGCCATCTAC | 0.663 RPM ratio (pull-down/input)
GATGATTGTTCTCCCAGCTGATGAATTAACGCCGTCGAGTAAACAAATTTTCCTAATCTTTCTGTTCAAGCGCCATCTAC | 0.918 RPM ratio (pull-down/input)
GATGATTGTTCTCCCAGCTGATGAATTGAATGTTTCGAGTAAACAAATTTTCCTAATCTTTCTGTTCAAGCGCCATCTAC | 1.01 RPM ratio (pull-down/input)
GATGATTGTTCTCCCAGCTGATGAATTTCTAATATCGAGTAAACAAATTTTCCTAATCTTTCTGTTCAAGCGCCATCTAC | 1.09 RPM ratio (pull-down/input)
GATGATTGTTCTCCCAGCTGATGAATTCTCGACATCGAGTAAACAAATTTTCCTAATCTTTCTGTTCAAGCGCCATCTAC | 0.911 RPM ratio (pull-down/input)
GATGATTGTTCTCCCAGCTGATGAATTATGCGTGTCGAGTAAACAAATTTTCCTAATCTTTCTGTTCAAGCGCCATCTAC | 1.1 RPM ratio (pull-down/input)
GATGATTGTTCTCCCAGCTGATGAATTCGAACCCTCGAGTAAACAAATTTTCCTAATCTTTCTGTTCAAGCGCCATCTAC | 0.768 RPM ratio (pull-down/input)
GATGATTGTTCTCCCAGCTGATGAATTGGCACATTCGAGTAAACAAATTTTCCTAATCTTTCTGTTCAAGCGCCATCTAC | 0.995 RPM ratio (pull-down/input)
GATGATTGTTCTCCCAGCTGATGAATTCGACGTTTCGAGTAAACAAATTTTCCTAATCTTTCTGTTCAAGCGCCATCTAC | 0.886 RPM ratio (pull-down/input)
GATGATTGTTCTCCCAGCTGATGAATTACCTCTTTCGAGTAAACAAATTTTCCTAATCTTTCTGTTCAAGCGCCATCTAC | 0.991 RPM ratio (pull-down/input)
GATGATTGTTCTCCCAGCTGATGAATTTCGATCGTCGAGTAAACAAATTTTCCTAATCTTTCTGTTCAAGCGCCATCTAC | 0.838 RPM ratio (pull-down/input)
GATGATTGTTCTCCCAGCTGATGAATTAACTTGGTCGAGTAAACAAATTTTCCTAATCTTTCTGTTCAAGCGCCATCTAC | 0.851 RPM ratio (pull-down/input)
GATGATTGTTCTCCCAGCTGATGAATTTCCAGTGTCGAGTAAACAAATTTTCCTAATCTTTCTGTTCAAGCGCCATCTAC | 0.791 RPM ratio (pull-down/input)
GATGATTGTTCTCCCAGCTGATGAATTCCTGCATTCGAGTAAACAAATTTTCCTAATCTTTCTGTTCAAGCGCCATCTAC | 1.17 RPM ratio (pull-down/input)
GATGATTGTTCTCCCAGCTGATGAATTCCAGTTCTCGAGTAAACAAATTTTCCTAATCTTTCTGTTCAAGCGCCATCTAC | 0.7 RPM ratio (pull-down/input)
GATGATTGTTCTCCCAGCTGATGAATTAACCCCGTCGAGTAAACAAATTTTCCTAATCTTTCTGTTCAAGCGCCATCTAC | 0.828 RPM ratio (pull-down/input)
GATGATTGTTCTCCCAGCTGATGAATTATTGGGATCGAGTAAACAAATTTTCCTAATCTTTCTGTTCAAGCGCCATCTAC | 1.2 RPM ratio (pull-down/input)
GATGATTGTTCTCCCAGCTGATGAATTCCCCTATTCGAGTAAACAAATTTTCCTAATCTTTCTGTTCAAGCGCCATCTAC | 0.844 RPM ratio (pull-down/input)
